Here are results for 86 sequences from the supplement of paper PMC3334620.

In all, about 33,000 sequences were measured (“E-score (-0.5 to 0.5)”: median about -0.016, highest 2% from about 0.31 on). Some of the results follow.

The target of the experiment is Cst6 (UniProt P40535). The experiment in a line: PBM E-score (8-mer binding enrichment) (E-score (-0.5 to 0.5)); higher = stronger / more preferred TF binding; most listed sequences are background and not binding sites. Conditions: protein concentration: 200 nM; construct: GST-DNA-binding domain. As for the experimental part:
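Universal 'all 10-mer' protein binding microarrays (Agilent AMADID 015681) probed with GST-tagged S. cerevisiae TFs (full-length or DBD) made by in vitro transcription/translation (PURExpress), about 100-200 nM. Bound TF was detected with fluorescent anti-GST. Each ungapped 8-mer (which stands for itself and its reverse complement) is scored by the PBM enrichment score (E-score), a modified Wilcoxon-Mann-Whitney statistic from -0.5 to +0.5, computed with the Universal PBM Analysis Suite. Scale: above 0.35 generally sequence-specific binding.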
Consider ATGAACTG, for which the “PBM E-score” value is 0.12.

Take CCCGACTC: the “PBM E-score” value was -0.183.

Take GATTGTTA: the “PBM E-score” value stood at 0.175.

For CCAGTAGC, the “PBM E-score” value is -0.116.

For CCTCAGCG, the “PBM E-score” value was -0.115.

TAACTACA: the “PBM E-score” value turned out to be 0.0421.

Turning to CAAAACAC, the “PBM E-score” value stood at 0.0806.

For CACCCTCC, the “PBM E-score” value was -0.236.

As to CGATCCGA, the “PBM E-score” value is -0.0643.

For CTGCGCAA, the “PBM E-score” value is -0.0541.

For the sequence CTGTATGA, the “PBM E-score” value turned out to be 0.1.

ACGTAGAG: the “PBM E-score” value is -0.01.

With ACCATTCT, the “PBM E-score” value is -0.192.

CACCCTGA: the “PBM E-score” value is -0.151.

Take GACAGGAA: the “PBM E-score” value was 0.00052.

On to GATGGCCA, for which the “PBM E-score” value is -0.0625.

Consider ACTCCCAC, for which the “PBM E-score” value is -0.238.

Take GTGCGTTA: the “PBM E-score” value stood at 0.0965.

In the case of TGATACAA, the “PBM E-score” value amounted to 0.141.

On to AGATTTGC, for which the “PBM E-score” value turned out to be 0.147.

As for ATCCATTA, the “PBM E-score” value came out at 0.107.

Take CGCATCCG: the “PBM E-score” value was -0.0682.

For the sequence AACGCATG, the “PBM E-score” value worked out at 0.0389.

Consider ATACATCG, for which the “PBM E-score” value came out at 0.0993.

On to ACGACTAG, for which the “PBM E-score” value is -0.0416.

Take ACGGGGCG: the “PBM E-score” value worked out at 0.105.

In the case of CACGACGC, the “PBM E-score” value is -0.0944.

For the sequence CATGGCGC, the “PBM E-score” value came out at 0.0147.

As to CGCCCGCC, the “PBM E-score” value is -0.129.

Take AAACTCCA: the “PBM E-score” value is -0.00312.

In the case of ATACAATC, the “PBM E-score” value amounted to 0.09.

As for AGTGCAGA, the “PBM E-score” value was -0.0627.

Consider AACAAGTT, for which the “PBM E-score” value turned out to be 0.0438.

As for ACTCCTCA, the “PBM E-score” value is -0.122.

Regarding AGGTCGTA, the “PBM E-score” value was -0.0992.

For the sequence AAAACCGC, the “PBM E-score” value is -0.0283.

AGTACAGC: the “PBM E-score” value is -0.21.

In the case of AGAGAATG, the “PBM E-score” value is 0.124.

Regarding AATAAAGT, the “PBM E-score” value came out at 0.147.

TCTATCAA: the “PBM E-score” value worked out at 0.0834.

Consider GCTATGCC, for which the “PBM E-score” value was -0.0323.

Take CCCTGCTA: the “PBM E-score” value was -0.239.

AGTCATGG: the “PBM E-score” value is -0.00571.

In the case of ACTACCAG, the “PBM E-score” value was -0.196.

In the case of CGTGTGGC, the “PBM E-score” value came to 0.0291.

With CTCACACC, the “PBM E-score” value was -0.167.

CATTGGTA: the “PBM E-score” value was -0.00631.

For the sequence ATGTCCTC, the “PBM E-score” value is -0.113.

For the sequence GCTCTTGA, the “PBM E-score” value was -0.114.

In the case of CGCCTATC, the “PBM E-score” value stood at 0.0853.

Consider ATCGCCAA, for which the “PBM E-score” value is -0.0793.

On to ACCATGCG, for which the “PBM E-score” value was -0.0952.

For GGGTCGCA, the “PBM E-score” value is -0.144.

Regarding TATGGCCA, the “PBM E-score” value was -0.157.

For the sequence AGTCGACA, the “PBM E-score” value was 0.0494.

In the case of CTTAACTC, the “PBM E-score” value came to 0.0318.

With CCTCGAAA, the “PBM E-score” value worked out at 0.0797.

For the sequence AAGGAGTA, the “PBM E-score” value was -0.163.

Consider ATCGTCTA, for which the “PBM E-score” value was 0.0351.

In the case of CGACGTGC, the “PBM E-score” value is -0.0698.

For CGAACTTA, the “PBM E-score” value was determined as 0.0168.

Consider AATTGTCG, for which the “PBM E-score” value worked out at 0.0471.

ACCAGCAC: the “PBM E-score” value was -0.0814.

Turning to CCAAGCCG, the “PBM E-score” value was -0.182.

Regarding GGCGATGA, the “PBM E-score” value stood at 0.186.

In the case of AGCCCGAG, the “PBM E-score” value was -0.234.

On to AGAGCTCT, for which the “PBM E-score” value was -0.384.

As to CGGCCAGC, the “PBM E-score” value is -0.043.

GAGTGCCC: the “PBM E-score” value was -0.269.

With GGTTCACA, the “PBM E-score” value is -0.0892.

TAAGTTGA: the “PBM E-score” value came to 0.143.

For GGCATACA, the “PBM E-score” value is -0.102.

In the case of CCCAGAGC, the “PBM E-score” value is -0.254.

Regarding ACAGTCAC, the “PBM E-score” value was -0.0122.

With ACTTCCCT, the “PBM E-score” value is -0.025.

Regarding CAGGCGTA, the “PBM E-score” value is -0.0173.

Take TAAGCGCA: the “PBM E-score” value was -0.252.

On to ACCAATGG, for which the “PBM E-score” value is -0.218.

On to CACCCACC, for which the “PBM E-score” value is -0.0444.

In the case of CCCCAGAA, the “PBM E-score” value was -0.203.

AAGGTATA: the “PBM E-score” value is -0.035.

Consider ATCCGCGA, for which the “PBM E-score” value amounted to 0.105.

As for CAGCTCCG, the “PBM E-score” value is -0.0095.

As to CTCTAACC, the “PBM E-score” value is -0.234.

As for AACTATAA, the “PBM E-score” value was found to be 0.157.

Consider TAAGCCTA, for which the “PBM E-score” value was found to be 0.0787.
